In PubChem BioAssay AID686979 (National Center for Advancing Translational Sciences (NCATS), 2013):
The campaign covered roughly 420,000 compounds. About 50,000 (12%) were called active. Calls follow the shape of the dose curve; as a rule, active = well fitted inhibition curve with a large enough effect; inconclusive = small, poorly fitted or top-dose-only effect; inactive = flat fitted curve, though single readings scatter. Inconclusive results, whose numbers are uncertain, are shown. Potencies of inconclusive entries are left out as doubtful fits.

Experiment: qHTS for Inhibitors of human tyrosyl-DNA phosphodiesterase 1 (TDP1): qHTS in cells in presence of CPT; also: nearly all actives have a fitted effect of over 55% in size
Details: chicken DT40 Tdp1-/-;hTDP1 cells + 20 nM CPT, ATP luminescence, 48 h; series mostly up to 46.2 µM
Excerpt: Human tyrosyl-DNA phosphodiesterase 1 (TDP1) is a novel repair gene, and we propose to use it as a new target for anticancer drug development. TDP1 is not an essential protein, but under treatment with topoisomerase I poison (camptothecin: CPT), TDP1 works as a critical factor for cell survival. To directly identify novel TDP1 inhibitors active in a cellular environment, we have knocked-out the Tdp1 gene in chicken DT40 cells (Tdp1-/-) and generated a complemented counterpart cells that contains a stable transfection of the human TDP1 gene (Tdp1-/-;hTDP1 cells). For the primary screen, Tdp1-/-;hTDP1 cells will be exposed to small molecules in the presence or absence of CPT, and their growth kinetics will be evaluated after 48 hours by measuring ATP activity. […] The hit compounds will then be evaluated in the presence or absence of CPT using Tdp1-/- cells. […]
DT40-hTDP1 cells with 20 nM Camptothecin (add 20 microL of 1 mM CPT stock in 1 L of cell culture medium) were dispensed at 400 cells/5microL/well in tissue culture treated 1536-well white wall/solid bottom assay plates (Greiner Bio-One North America, NC, U.S.A.) using a Multidrop Combi 8 channel dispenser (Thermo Fisher, Waltham, MA, USA). […] Luminescence was read using ViewLux (Perkin Elmer) with 1 sec exposure slow speed, high gain and 2x binning.
Potency is read from the fitted curve at half-maximal effect; tags tell the direction and shape of the fitted curve.

Question: Which Potency does the source give for `CCCOc1ccc(C2C(C(=O)c3cc4ccccc4o3)=C(O)C(=O)N2c2cc(C)on2)cc1` (stereo unspecified) here?
Answer: inconclusive [inhibitor, single point]
